Data reported in the supplement of paper PMC7826260.
The list shows a part of the results. The data describe in vitro nicking of single-stranded DNA by Rep domains for 1 h at 37 °C with 3 µM enzyme; only the middle of the 90-letter strands is printed. Numbers give uncut DNA relative to the enzyme-free pool, as log2; strong cutting gives strongly negative numbers. There is no active / inactive call. The scaling is to total reads, so uncut sequences can rise above 0 when many others are cut.

Test system: T1, Rep nickase domain of tomato golden mosaic virus
T1 sequence (residues 1-124 of Rep, tag left off): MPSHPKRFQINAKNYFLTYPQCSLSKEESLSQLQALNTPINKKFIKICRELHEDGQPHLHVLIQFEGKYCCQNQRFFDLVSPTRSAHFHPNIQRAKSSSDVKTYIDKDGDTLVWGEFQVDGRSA
Experiment: uncleaved DNA left, log2 of reads against the no-enzyme library (log2 ratio); higher = less cleavage (more negative = more Rep cleavage of the k-mer); sequences stand for … in CTCGTCCG…ACCGGAGA
Experimental: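 A pool of 90-nt single-stranded DNAs with seven random bases just before the constant AC of the nick site (name = the seven bases) was cut by 3 µM recombinant His6-SUMO-tagged Rep nickase domain (300 nM DNA, 50 mM HEPES pH 8.0, 50 mM NaCl, 1 mM MnCl2, 1 h, 37 °C, three replicates). Uncut DNA was amplified and sequenced.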

Sequence | uncleaved DNA left (log2)
GCGTGTG | 0.0244
CTAGCCG | -0.0202
AAAAGTG | 0.0737
GCATAAC | 0.013
AAACGAG | -0.0571
CATTGGA | 0.032
GCTCATA | 0.124
TGACTGG | -0.106
TCCCAAA | 0.0511
CTGTACT | -0.163
GACAGTA | 0.0268
CCGCACC | -0.17
TAATGCC | -1.78
ATGACCC | -0.0409
CGTCACT | -0.0247
CGGTTCC | -0.0821
CACGAGT | 0.0947
AGTCTTC | -0.0175
ATAGGGA | 0.17
AGTAAAA | 0.141

Sequence | uncleaved DNA left (log2)
CTTACCG | -0.0605
GGATACT | 0.0127
GGTCGGG | 0.0231
CTGAGCC | 0.0676
TACGTTA | -0.0757
CGTTACC | -0.0341
CAACACA | 0.0493
TTACGTT | -0.0954
AGTCCAC | -0.143
TATAGTG | -0.0173
CAATAGA | 0.00125
ACCCACA | -0.0415
CCCGTAA | 0.108
CTGATTA | 0.0469
AAAGAGA | 0.15
ACCAGTG | -0.0129
GGACTAC | 0.0438
GCGATTC | -0.204
GCGTGCA | -0.106
CATGCGG | 0.114
